Assay results as given in the supplement of paper PMC11417369.
± gives the standard deviation of the averaged measurements. This is one part of the list.

system: PfAP2-LT AP2 domain (GST-tagged); test: gcPBM binding intensity (ln(normalized median fluorescence intensity)); higher = stronger DNA binding
How it was run: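 An Agilent 4 × 180k array of primer-extended double-stranded 36-bp intergenic genomic probes, with negative controls, was incubated for 1 h with GST-tagged P. falciparum DNA-binding domains expressed in E. coli. Alexa488 anti-GST antibody detected bound protein, scanned at 488 nm. Binding intensity is the highest Masliner-normalised natural-log median intensity across replicate spots of either probe orientation.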

| Sequence | gcPBM binding intensity (ln) |
| --- | --- |
| AAAAAAAATTCCAGTACACACAATAATACTAAAAAT [CACACA_site2801] | 9.02 ± 0.41 |
| AAAAATTACAAAAATGCATGTACTATTCATATTTTT [TGCATGCA_site918] | 8.8 ± 0.52 |
| ATGCATATAATTATATGTACATATAAGAAATATATA [XGTACX_site517] | 8.96 ± 0.39 |
| CATTTATTATGATAAAGTACTTAAATTAATAGATAA [XGTACX_site3566] | 8.38 ± 0.51 |
| ATAAAAAACAGTGGCACACATTATGTATCCACCTTT [CACACA_site5958] | 8.94 ± 0.44 |
| CATATAAAGATATGAACACACAAAAAGAATATTTCC [CACACA_site6811] | 9.02 ± 0.43 |
| AATAATAAAAAATACACACACATATAAATATATTAC [CACACA_site7597] | 9.51 ± 0.3 |
| AGGACACATATATGCAAAAAAAAAAAAAAAAAAAAA [TGCATGCA_negctrl_site427] | 8.41 ± 0.59 |
| TTCCGAACGACCTAAAGTACATGTATTTCAACTTTT [XGTACX_site1220] | 8.91 ± 0.47 |
| TAGTGTATGATAATATGTACATACATTTATATAATA [XGTACX_site6330] | 8.77 ± 0.47 |
| TCTTTTTTTTTTTTTTTTTCTTCTTCTCAATATAAA [GTGCAC_negctrl_site303] | 8.35 ± 0.47 |
| TTTTATAAAAAAACTATAAAAATATATAGTACTTAA [CACACA_negctrl_site440] | 8.19 ± 0.38 |
| TATGCACACAATATATGTACTTATATATTTTAAAAA [XGTACX_site5482] | 8.91 ± 0.47 |
| CATAATATGTGGACTTTACACACTTGTTTTAAAATT [CACACA_site819] | 8.76 ± 0.42 |
| TGAGATAACAAAAGTTGTACTTTTTTTTTTTTTTTT [XGTACX_site3004] | 8.53 ± 0.29 |
| TTTAATAAAAAAATTAAAAATAAAGAAAAAAAAAAA [CACACA_negctrl_site1464] | 8.18 ± 0.58 |
| AAATATATATAAAACTCACACATTATCTTATAACCA [CACACA_site5268] | 8.84 ± 0.35 |
| TATGTGTATACAATATGTACATATGTTAACTTGTAT [XGTACX_site872] | 8.88 ± 0.38 |
| AAAAAATAATATTGTACACACATAAATTCTTTGTCA [CACACA_site5187] | 8.99 ± 0.42 |
| ATGTATGGAAATTTTACACACAAGAGTAGTTTAAAA [CACACA_site1710] | 8.97 ± 0.44 |
| GCATATGTTCAGCGTTGTACATAAAAAAAAACATAT [XGTACX_site5974] | 8.82 ± 0.44 |
| TTAAATAAATATAAGTGTACATACACACTTTACAAT [XGTACX_site6348] | 8.77 ± 0.42 |
| GCGTAATCTATTTGCACACTTATTTGTTCTTAAAAA [CACACA_site672] | 8.91 ± 0.33 |

| Sequence | gcPBM binding intensity (ln) |
| --- | --- |
| GTTTAAAGTTGAACAAGTACACATTTATATAAGGCA [XGTACX_site351] | 8.67 ± 0.48 |
| TTTATTTATTACTAAAGTACTAAATCATATAATTAT [XGTACX_site3654] | 8.4 ± 0.46 |
| TTTTGAAAGTTTTTGTGTCCACATATATTTATATAT [XGTACX_site6563] | 8.94 ± 0.44 |
| ATATCATAAGTAGAAACACACAATTAGATTTTTTCC [CACACA_site2353] | 8.79 ± 0.47 |
| ATTATAAACCAGAATGCATGTAGATGAATCTTTTCT [TGCATGCA_site284] | 8.8 ± 0.45 |
| TAAAAATATAAAACATGTACATATATGCATATATTT [XGTACX_site8093] | 8.86 ± 0.48 |
| AAAAAAAATAATATTGTACACACATAAATTCTTTGT [CACACA_site8654] | 9.1 ± 0.57 |
| TTTTATAAATACACACGTACGTGTGCATAACGTTTT [XGTACX_site3199] | 9.28 ± 0.24 |
| TACTTTTTAAAAATGTTTTATATAATAAAAAGATAT [CACACA_negctrl_site678] | 8.3 ± 0.51 |
| CTTATATTAAAACACACACACGCACAAAACAGAAAT [CACACA_site1462] | 9.88 ± 0.2 |
| TAAGCCTTTCTATTATGTACTTATTAAAACATGTAG [XGTACX_site8022] | 8.67 ± 0.48 |
| AAATTTATTTCTGTGTGTCCACAAAAAAAAATCTTT [XGTACX_site691] | 8.48 ± 0.49 |
| TTTTTTTTTTTCAATAGTACTTTCCATTTACATATA [XGTACX_site3889] | 8.59 ± 0.53 |
| TAATTGAGCAAATGAGTGCACAGCATAAAGTATAGT [GTGCAC_site9497] | 9.23 ± 0.51 |
| AAATTTAAAATAAGTAGTACATAATATAAATAAATA [XGTACX_site3592] | 8.73 ± 0.42 |
| GTACTTGTATTATGCACACATATAATTAAACATATA [CACACA_site3312] | 8.97 ± 0.34 |
| TATAAAAGAAACTATACACACATATTTTAAATATTT [CACACA_site2753] | 8.79 ± 0.53 |
| TATACATACCCACCCACACACAAAAAAAAAAAAAAA [CACACA_site4632] | 9.76 ± 0.3 |
| TATACTCATAAATACACACACATATATATATATATA [CACACA_site5822] | 9.81 ± 0.014 |
| GGGGGCTTTTATAAAAGTACAAAATGAATAAAAATT [XGTACX_site2393] | 8.82 ± 0.16 |
| TTTTAAAAAAAATAAAAAATAAACAATAATAAATAA [CACACA_negctrl_site721] | 8.31 ± 0.69 |
| TCTTTATTATTCGCCACACACATATATATATATATA [CACACA_site3077] | 9.66 ± 0.11 |
| TATATATATAAAAATACACACATGAATGAATATATA [CACACA_site419] | 9.07 ± 0.42 |

| Sequence | gcPBM binding intensity (ln) |
| --- | --- |
| AAAATATAATATAATGCACACATAAAAAAAAAATCA [CACACA_site7922] | 9.07 ± 0.49 |
| TATCTGTAAATGGACACACACATATATATATATATA [CACACA_site5926] | 9.9 ± 0.49 |
| ATATTGTGTTATAAATGTACACAATTTCCTTTCATA [XGTACX_site7481] | 8.71 ± 0.43 |
| ATATATGTTCCTTTTACACACATAATCTTTTTTTTA [CACACA_site2661] | 9.14 ± 0.29 |
| TTTTTAAAAATATACACACACAGATATTATATATAT [CACACA_site786] | 9.1 ± 0.26 |
| AAAATATAATATAATGCACACATAAAAAAAAAAAAA [CACACA_site7989] | 8.98 ± 0.42 |
| TTCATATAGAATTGTACACACAAAAACGACATTGTG [CACACA_site7061] | 8.98 ± 0.33 |
| AAAAAAAAGGAAATAACACACATGTATATATCTATA [CACACA_site6856] | 8.99 ± 0.52 |
| ATATATATATGTATGTATATATATATATATGTTTGA [GTGCAC_negctrl_site561] | 9.21 ± 0.057 |
| GGGGACGCGGGTGGGGGTACTCACACTATGCAAAAT [XGTACX_site7745] | 9.52 ± 0.014 |
| GTATCAATAAAAAACAGTACATATATAATATATTTA [XGTACX_site1083] | 8.76 ± 0.48 |
| AAAATAATTTTATAGTTGCACTATATCGTATACAAT | 8.84 ± 0.48 |
| TGATTAAATCAAGAAAGTACAAAATGAAATATATAA [XGTACX_site4319] | 8.89 ± 0.32 |
| ATATATTTTATACATACACACATATATATATTTTTT [CACACA_site3940] | 9.02 ± 0.44 |
| TAAAGTGTAAAATTCACACACATATAAATAAATATA [CACACA_site6765] | 9.23 ± 0.45 |
| AATTCAAAGAAAAACTGTACGTGTAGCAAACATCCT [XGTACX_site599] | 8.8 ± 0.43 |
| TAATATGAAGATGGCAGTACTCTAGTCAATTTTTAC [XGTACX_site5375] | 8.77 ± 0.39 |
| AAAATATATAAATATACATGCATAATTAATAGTATA [TGCATGCA_site804] | 8.87 ± 0.42 |
| TTTAAAAAAAAAAATACACACATAAAAGTTTTCAAA [CACACA_site6471] | 8.62 ± 0.47 |
| TACAAAAGCTATAACATTCACCACATTATAAAAATA [CACACA_negctrl_site1112] | 8.65 ± 0.48 |
| TTTTCATTAAGATACTTATAATAGTTTATTAGTAAA [CACACA_negctrl_site586] | 8.16 ± 0.4 |
| TTACAAATATTATAATGTACCCATTTTTTTTGCCTT [XGTACX_site6612] | 8.59 ± 0.64 |
| TGAGATAAATGTGGTAGTACATTTTTTTTATATATA [XGTACX_site1918] | 8.49 ± 0.61 |

| Sequence | gcPBM binding intensity (ln) |
| --- | --- |
| ATATCATCTTCTCTATCATTTTTTTTTTTTTTTTTT [CACACA_negctrl_site1220] | 8.62 ± 0.59 |
| ATAAAAAAATCAGACACACACACGTAAACACATACA [CACACA_site5529] | 10.1 ± 0.16 |
| CAAAAATTACCCTTGTGTACACATATATTATATGTA [XGTACX_site1124] | 8.99 ± 0.47 |
| CTTTTTTTTTTTTTTTGTCCGTATGAGGGACCTATA [XGTACX_site8839] | 8.49 ± 0.74 |
| TCCATTGTCACCTTTTGTACTTAAATTTTTTCCTCC [XGTACX_site1573] | 8.84 ± 0.42 |
| ATGTTATAATTTAGTGTGCACATATTAAGAGGAACA | 9.15 ± 0.42 |
| ATATATATTTATATATGTACATATTTTTGTGTATTT [XGTACX_site1183] | 9.14 ± 0.44 |
| AATAATAATAGAAACACACACACATTTTTAATAATA [CACACA_site1217] | 9.72 ± 0.3 |
| ATATATATATATATATGTACATAATAATTTTATAAA [XGTACX_site5105] | 9.09 ± 0.18 |
| CTACTTAATATTTGTACACACATATTTAACCTACTA [CACACA_site5725] | 9.23 ± 0.45 |
| TTAATTATGTTTTGGTGTACAATAAATTGAATAGAT [XGTACX_site3306] | 8.52 ± 0.49 |
| CTTTTTGAAATATTAACACACATTTTGTTAATTAAT [CACACA_site4046] | 8.73 ± 0.4 |
| CACAGATAAATTAACACACACACACCCATATATATA [CACACA_site3960] | 10.05 ± 0.071 |
| ATAATATAACACAAATGTACAAAAAATAAATAAATA [XGTACX_site385] | 8.94 ± 0.4 |
| CATACTCACCAACACACACACACACCCATATAGAAT [CACACA_site592] | 10.2 ± 0.28 |
| TATATATATACTTAATGTACATATATATATATATAT [XGTACX_site3102] | 9.215 ± 0.064 |
| GAAAACGTTTGAAGTTGTACATATGTATAAAAAGAA [XGTACX_site2304] | 9.02 ± 0.54 |
| ATAAAAATACAGTTAACACACATGTGTATTTATATG [CACACA_site7727] | 9.24 ± 0.3 |
| TGTTATTTAAATAATTCTTTTTAAAAGATGAATTAT [CACACA_negctrl_site1226] | 8.08 ± 0.44 |
| ATGGTCTGTTAAAGATGTACTTTTTAAAAATAAACG [XGTACX_site2583] | 8.36 ± 0.39 |
